According to paper PMC4336329 (PLoS ONE, 2015):
The campaign covered roughly 310,000 compounds. About 2,200 (0.71%) showed an effect of 50% or more. Effects have a minus sign here. This is one part of the list.

What follows are compounds tested against human ether-à-go-go-related gene (hERG) potassium channel (human, UniProt Q12809) (assay: primary screen, population patch clamp on CHO cells stably expressing hERG).
human ether-à-go-go-related gene (hERG) potassium channel, sequence (Q12809 whole entry, looked up): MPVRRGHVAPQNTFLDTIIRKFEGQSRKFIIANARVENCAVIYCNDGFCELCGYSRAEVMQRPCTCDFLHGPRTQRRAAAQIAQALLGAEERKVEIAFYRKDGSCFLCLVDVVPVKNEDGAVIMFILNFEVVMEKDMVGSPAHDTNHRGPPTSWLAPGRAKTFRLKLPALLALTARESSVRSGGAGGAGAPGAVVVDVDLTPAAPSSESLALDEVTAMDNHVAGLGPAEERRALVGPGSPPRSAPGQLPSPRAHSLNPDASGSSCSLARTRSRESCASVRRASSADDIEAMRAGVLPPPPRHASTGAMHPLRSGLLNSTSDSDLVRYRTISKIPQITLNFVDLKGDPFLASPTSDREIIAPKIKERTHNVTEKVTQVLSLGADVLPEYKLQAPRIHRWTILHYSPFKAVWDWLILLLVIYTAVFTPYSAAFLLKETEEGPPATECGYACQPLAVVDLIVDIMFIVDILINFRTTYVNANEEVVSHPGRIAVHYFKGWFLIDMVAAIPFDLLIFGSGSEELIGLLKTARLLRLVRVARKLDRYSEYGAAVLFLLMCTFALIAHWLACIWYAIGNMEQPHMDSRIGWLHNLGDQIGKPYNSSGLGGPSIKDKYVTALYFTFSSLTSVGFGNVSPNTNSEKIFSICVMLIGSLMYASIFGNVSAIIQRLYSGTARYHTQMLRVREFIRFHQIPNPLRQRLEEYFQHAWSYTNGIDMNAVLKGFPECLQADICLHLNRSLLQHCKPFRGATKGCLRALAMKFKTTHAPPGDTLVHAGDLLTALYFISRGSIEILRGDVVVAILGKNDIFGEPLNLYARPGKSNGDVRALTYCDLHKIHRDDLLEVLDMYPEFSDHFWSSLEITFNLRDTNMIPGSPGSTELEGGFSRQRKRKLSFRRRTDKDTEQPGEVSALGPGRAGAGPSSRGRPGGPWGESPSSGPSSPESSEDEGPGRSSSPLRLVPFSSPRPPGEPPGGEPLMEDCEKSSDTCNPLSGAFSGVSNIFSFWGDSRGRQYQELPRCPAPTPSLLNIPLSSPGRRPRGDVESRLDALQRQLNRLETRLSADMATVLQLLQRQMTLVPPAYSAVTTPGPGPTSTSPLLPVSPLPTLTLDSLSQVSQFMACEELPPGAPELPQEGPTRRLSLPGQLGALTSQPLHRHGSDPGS

| Compound | hERG current change (%, negative = inhibition) at 1uM |
| --- | --- |
| COc1ccc(NC(=O)c2cccc(Oc3ccccc3)c2)cn1 | 20% |
| CCCc1nnc(SCC(=O)N2CCCCC2C)n1CCCOC (centres unmarked) | 2.44% |
| CCC1Nc2ncnc(N3CCOCC3)c2N(Cc2ccccc2)C1=O.O=C(O)C(F)(F)F (centres unmarked) | 13.8% |
| Cc1cc(C)cc(NC(=O)CSc2nnc(-c3ccccc3)n2N)c1 | 8.93% |
| COc1ccc(NC(=O)COC(=O)CCNS(=O)(=O)c2ccccc2)cc1OC | 4.81% |
| CCN1CCN(c2nc(N)c([N+](=O)[O-])c(Nc3ccc(C)cc3)n2)CC1 | -7.72% |
| COC(=O)C1=C(Nc2ccccc2NC(=O)CCCC(=O)O)CSC1 | 9.32% |
| CCOc1ccccc1C(=O)NCCCCNC(=O)c1ccccc1OCC | 0.0163% |
| CCOc1ccc(CCNC(=O)c2[nH]c(C)c(C(C)=O)c2CC)cc1OCC | 8.48% |
| CN(C)C(=O)c1ccc(NC(=O)CC2SC(N3CCCC3)=NC2=O)cc1 (centres unmarked) | 17.8% |
| COc1ccc(-n2c(=O)c3c4c(sc3n(Cc3cccc(F)c3)c2=O)CN(C(C)=O)CC4)c(OC)c1 | 1.25% |
| CC(OC(=O)C1CCC1)C(=O)Nc1cc(Cl)cc(Cl)c1 (centres unmarked) | 8.36% |
| C=CCn1c(=O)c(C(=O)NCCN(CC)CC)c(O)c2ccccc21.Cl | 0.578% |
| Cc1ccc(-n2nc(C(=O)O)c(O)cc2=O)cc1 | 12.3% |
| O=C(Oc1cc(=O)n2ccccc2n1)c1ccccc1 | 15.4% |
| CCN(CC)S(=O)(=O)c1ccc(OC)c(NC(=O)c2cc(=O)[nH]c3ccccc23)c1 | 9.13% |
| COCCn1c(-c2ccco2)nc2nc3ccccc3nc21 | 7.49% |
| Cc1cccn2cc(-c3cccc(S(=O)(=O)N4CCOCC4)c3)nc12 | 3.06% |
| COc1ccc(C(=O)c2cnc[nH]2)cc1OC | 6.7% |
| CCOc1ccc(C(C)=O)cc1COC(=O)C(C)N=C1NS(=O)(=O)c2ccccc21 (centres unmarked) | 12.9% |
| Cc1ccc(-n2c(=O)c3sccc3n(CC(=O)NCC3CCCO3)c2=O)cc1F (centres unmarked) | 1.95% |
| O=C(O)/C=C/c1cn(-c2ccccc2)nc1-c1ccccc1 | 7.32% |
| Cc1nnc(SCC(=O)Nc2sccc2C#N)s1 | 7.34% |

| Compound | hERG current change (%, negative = inhibition) at 1uM |
| --- | --- |
| CC(C)(Oc1ccc(Cl)cc1)C(=O)Nc1ccc(S(=O)(=O)Nc2ncccn2)cc1 | 2.98% |
| Cn1c(N)c(C(=O)COC(=O)CCCc2nc3ccccc3s2)c(=O)n(C)c1=O | 35.9% |
| COc1cccc(NC(=O)NCCCCc2ccccc2)c1 | -0.169% |
| CC1(C)Cc2nc(-c3ccccc3)nc(SCC(=O)N3CCOCC3)c2CO1 | 8.06% |
| CC(C)(C)c1nnc(NS(=O)(=O)c2cc(Cl)ccc2Cl)s1 | 6.89% |
| COCCN1C(=O)c2ccccc2C(C(=O)NCCCN2CCCC2)C1c1c[nH]c2ccccc12 (centres unmarked) | 2.87% |
| CCOc1cc(-c2ccc(N)c(OCC)c2)ccc1N | -0.223% |
| C=C(Br)Cn1c(CCCC)nc2ccccc21 | -6.89% |
| O=C(COC(=O)c1ccc([N+](=O)[O-])s1)NCc1ccc(F)cc1 | 23.6% |
| NC(Cc1c[nH]c2ccccc12)C(=O)NCc1ccccc1 (centres unmarked) | 17.6% |
| Cc1cc2cc(C=C(C#N)C#N)c(Cl)nc2cc1C | 3.01% |
| O=C(NCCCn1ccnc1)C(=O)NCC(c1ccco1)N1CCN(c2ccccc2)CC1 (centres unmarked) | 9.14% |
| Cc1cc2c(cc1C)NC(c1ccccn1)C1=C(CC(C)(C)CC1=O)N2 (centres unmarked) | 6.15% |
| CCC(=O)Nc1ccc(OCc2nc3ccccc3s2)cc1 | 11.6% |
| Nc1ccc(Nc2ccccc2)c(Cl)c1 | 8.89% |
| COCCN(C(=O)C(F)(F)F)C(C(=O)NC1CCCCC1)c1ccco1 (centres unmarked) | 9.42% |
| O=S(=O)(c1cccs1)N1CCN(c2ccc(Cl)cc2)CC1 | 19.9% |
| O=C(CSc1nnc(CNC(=O)c2ccccc2F)o1)NCc1ccccc1 | -9.19% |
| Cc1ccc(/C(O)=C2\C(=O)C(=O)N(C)C2c2ccccc2[N+](=O)[O-])cc1 (centres unmarked) | 13.8% |
| CC1=NC(C)(C)Cc2ccccc21.O=C(O)c1ccccc1O | 23.5% |
| O=C(NCCCN1CCCC1=O)c1ccc(Cl)c(NS(=O)(=O)c2ccc(F)cc2)c1 | 5.84% |
| Cc1ccc(NC(=O)COC(=O)c2cc(=O)c3ccccc3o2)cc1F | 14.7% |
| CC(=O)c1ccc(NC(=O)CSc2nnc(-c3ccncc3)o2)cc1 | -5.38% |

| Compound | hERG current change (%, negative = inhibition) at 1uM |
| --- | --- |
| COc1ccc2nc(NC(=O)c3c(C)noc3C)sc2c1 | -4.89% |
| CCN(CC)CCCn1c(=S)[nH]c2cc(Cl)ccc2c1=O | -41.9% |
| O=C(Nc1nc(-c2ccccc2)c(-c2ccccc2)s1)c1ccc(S(=O)(=O)N2CCCCC2)cc1 | 4.8% |
| CC(=O)c1ccc(COC(=O)c2cc3ccccc3oc2=O)cc1 | 6.71% |
| COc1cc(NC(=O)c2cc(Cl)nnc2Cl)cc(OC)c1OC | -2.82% |
| COc1ccc(NC2=C(C(C)=O)C(c3ccc(N(C)C)cc3)C(C(C)=O)C(C)(O)C2)cc1 (centres unmarked) | 10.2% |
| CC(C)OC(=O)Nc1ccc2c(c1)N(C(=O)CCN(C)C)c1ccccc1CC2.Cl | 3.73% |
| CN(C)/C=C(/C(=O)c1ccc(Cl)cc1Cl)S(=O)(=O)c1ccc(Cl)cc1 | 1.51% |
| CCCC[n+]1ccc(-c2nc3ccc([N+](=O)[O-])cc3[nH]2)cc1 | -41.3% |
| COc1ccc(-c2cc(C(=O)N(C)CC(=O)Nc3cccc(F)c3)c3ccccc3n2)cc1 | 10.3% |
| Cc1ccccc1OCC(=O)NCCCNC(=O)c1ccncc1 | 6.96% |
| O=c1[nH]c(=S)n(-c2ccc(Cl)cc2)c(O)c1/C=N/N1CCOCC1 | -3.14% |
| CCOCC(=O)Nc1nc2ccc(S(C)(=O)=O)cc2s1 | 2.73% |
| CCOC(=O)c1cc(C#N)c(Oc2cccc(C(F)(F)F)c2)nc1-c1ccccc1 | 5.66% |
| COc1ccc([N+](=O)[O-])cc1NC(=O)CCCOc1ccccc1 | 16.7% |
| CC1(C(=O)Nc2cccc3ccccc23)CC1(Br)Br (centres unmarked) | 7.75% |
| CC(NC(=S)NNS(=O)(=O)c1ccc(C(C)(C)C)cc1)c1ccccc1 (centres unmarked) | 4.82% |
| Cc1cccnc1NC(=O)c1c(O)c2ccccc2n(C)c1=O | 11.5% |
| COc1ccc(C2NC(=O)c3ccccc3O2)cc1OC (centres unmarked) | 8.88% |
| Cc1ccc(C(=O)Oc2ccccc2N2C(=O)C3C4CCC(C4)C3C2=O)cc1 (centres unmarked) | 11.6% |
| CCOC(=O)c1ccc(S(=O)(=O)N2CCC(C(=O)NCc3ccccc3OC)CC2)cc1 | 13.6% |
| Cc1cc(=O)n2nc(N3CCCC(C(=O)NCc4cccc(Br)c4)C3)sc2n1 (centres unmarked) | 0.13% |
| COc1ccc(OCCC(=O)N2CCCCC2)cc1 | 5.7% |

| Compound | hERG current change (%, negative = inhibition) at 1uM |
| --- | --- |
| CN1CCN(C(=O)C2CCC(CNS(=O)(=O)c3cccc4cccnc34)CC2)CC1 (centres unmarked) | 10.5% |
| CCC(Oc1ccccc1)C(=O)NC1CCSC1=O (centres unmarked) | 4.24% |
| O=C(O)CCCC(=O)N1CCN(c2cccc(Cl)c2)CC1 | 4.93% |
| N#Cc1cc2cc3c(cc2nc1SCC(=O)N1CCOCC1)OCO3 | 13.2% |
| CCn1c(Cc2cccs2)nnc1SCC(=O)Nc1ccc(OC)c(OC)c1 | 15.4% |
| Cc1ccc(-c2cc(C(=O)N/N=C/C=C/c3ccccc3)n[nH]2)o1 | -2.86% |
| C=CCOc1ccc(CNn2c(C)n[nH]c2=S)cc1OC | 18.2% |
| CC1CC(=O)C=C(O)C1C(=O)OC(C)(C)C (centres unmarked) | 10.5% |
| Cc1sc(NC(=O)Cn2[nH]c(=O)c3ccccc3c2=O)nc1-c1ccccc1 | 14.2% |
| COC(=O)c1cc(NC(=O)CN2C(=O)C(=O)N(C3CCCC3)C2=O)cc(C(=O)OC)c1 | 8.68% |
| Cc1ccc(O)c(CN2CCN(c3ccccc3)CC2)c1 | -1.79% |
| COc1ccc(C(CNC(=O)c2cccnc2SC)N2CCOCC2)cc1 (centres unmarked) | -3.94% |
| O=C(N/N=C/c1c[nH]c2ccccc12)c1ccncc1 | 8.29% |
| CC(=O)N1c2ccc(S(=O)(=O)N3CCC(C(=O)NCc4ccccc4Cl)CC3)cc2CC1C (centres unmarked) | 12.7% |
| Cc1ccn2cc(-c3ccc(Br)cc3)nc2c1 | 10.5% |
| CC(Sc1ncnc2sc(-c3ccccc3)cc12)C(=O)N1CCNC1=O (centres unmarked) | 4.6% |
| CC(C)CC1=NC(C(F)(F)F)(C(F)(F)F)c2c(n(CC(C)C)c(=O)[nH]c2=O)N1 | 18.2% |
| CCOC(=O)c1c2c3c(cccc3[nH]c1=O)C(=O)c1ccccc1-2 | 7.81% |
| Nc1nc(-c2cccc(Br)c2)cs1 | 8.42% |
| O=C(c1cccc([N+](=O)[O-])c1)n1nc(-c2ccccc2)nc1NCc1ccccc1 | 9.73% |
